# Source: the supplement of paper PMC8047034
# Where a name gives a salt, the structure may show the parent alone. The list shows a part of the results. Most values come without repeats; read them as rough.
# How the values were obtained:
# OVCAR4 = assay: log2 surviving fraction (library drug vs vehicle, or drug + carboplatin vs carboplatin alone; relative to plate median); ovarian cancer lines: OVCAR4 is platinum-sensitive and Ov4Carbo platinum-resistant; higher = more cell survival; settings: library drug concentration 10 µM, 7 days
# Ov4Carbo = assay: as above; settings: library drug concentration 10 µM, 7 days
smiles,measurement,setting,value
CC1=NN(c2ccccc2)C(=O)C1 [Edaravone (MCI-186)],log2 surviving fraction,OVCAR4; carboplatin co-treatment 0 µM,0.696
same,log2 surviving fraction,OVCAR4; carboplatin co-treatment 5 µM,-1.69
same,log2 surviving fraction,Ov4Carbo; carboplatin co-treatment 0 µM,0.0776
same,log2 surviving fraction,Ov4Carbo; carboplatin co-treatment 5 µM,0.235
N=C(N)NCCN1CCCCCCC1 [Guanethidine Sulfate],log2 surviving fraction,OVCAR4; carboplatin co-treatment 0 µM,-0.74
same,log2 surviving fraction,OVCAR4; carboplatin co-treatment 5 µM,-0.238
same,log2 surviving fraction,Ov4Carbo; carboplatin co-treatment 0 µM,-0.627
same,log2 surviving fraction,Ov4Carbo; carboplatin co-treatment 5 µM,-1.57
CCC[C@H](N[C@@H](C)C(=O)N1[C@H](C(=O)O)C[C@@H]2CCCC[C@@H]21)C(=O)OCC [Perindopril Erbumine (Aceon)],log2 surviving fraction,OVCAR4; carboplatin co-treatment 0 µM,0.143
same,log2 surviving fraction,OVCAR4; carboplatin co-treatment 5 µM,-0.163
same,log2 surviving fraction,Ov4Carbo; carboplatin co-treatment 0 µM,0.915
same,log2 surviving fraction,Ov4Carbo; carboplatin co-treatment 5 µM,0.0487
CCCC(=O)Nc1ccc(OCC(O)CNC(C)C)c(C(C)=O)c1 (stereo not drawn) [Acebutolol HCl],log2 surviving fraction,OVCAR4; carboplatin co-treatment 0 µM,0.638
same,log2 surviving fraction,OVCAR4; carboplatin co-treatment 5 µM,0.297
same,log2 surviving fraction,Ov4Carbo; carboplatin co-treatment 0 µM,1.06
same,log2 surviving fraction,Ov4Carbo; carboplatin co-treatment 5 µM,1.41
COc1ccc(-n2nc(C(N)=O)c3c2C(=O)N(c2ccc(N4CCCCC4=O)cc2)CC3)cc1 [Apixaban],log2 surviving fraction,OVCAR4; carboplatin co-treatment 0 µM,-0.498
same,log2 surviving fraction,OVCAR4; carboplatin co-treatment 5 µM,0.107
same,log2 surviving fraction,Ov4Carbo; carboplatin co-treatment 0 µM,-0.846
same,log2 surviving fraction,Ov4Carbo; carboplatin co-treatment 5 µM,-0.294
CN1CCN(C2=Nc3cc(Cl)ccc3Nc3ccccc32)CC1 [Clozapine (Clozaril)],log2 surviving fraction,OVCAR4; carboplatin co-treatment 0 µM,0.413
same,log2 surviving fraction,OVCAR4; carboplatin co-treatment 5 µM,0.0864
same,log2 surviving fraction,Ov4Carbo; carboplatin co-treatment 0 µM,-0.168
same,log2 surviving fraction,Ov4Carbo; carboplatin co-treatment 5 µM,0.12
OC(Cn1cncn1)(Cn1cncn1)c1ccc(F)cc1F [Fluconazole],log2 surviving fraction,OVCAR4; carboplatin co-treatment 0 µM,0.451
same,log2 surviving fraction,OVCAR4; carboplatin co-treatment 5 µM,1.5
same,log2 surviving fraction,Ov4Carbo; carboplatin co-treatment 0 µM,0.959
same,log2 surviving fraction,Ov4Carbo; carboplatin co-treatment 5 µM,-0.555
CCN[C@H]1C[C@H](C)S(=O)(=O)c2sc(S(N)(=O)=O)cc21 [Dorzolamide HCL],log2 surviving fraction,OVCAR4; carboplatin co-treatment 0 µM,-1.01
same,log2 surviving fraction,OVCAR4; carboplatin co-treatment 5 µM,-0.55
same,log2 surviving fraction,Ov4Carbo; carboplatin co-treatment 0 µM,-1.51
same,log2 surviving fraction,Ov4Carbo; carboplatin co-treatment 5 µM,-1.09
COc1cc(Cc2cnc(N)nc2N)cc(OC)c1OC [Trimethoprim],log2 surviving fraction,OVCAR4; carboplatin co-treatment 0 µM,0.499
same,log2 surviving fraction,OVCAR4; carboplatin co-treatment 5 µM,0.438
same,log2 surviving fraction,Ov4Carbo; carboplatin co-treatment 0 µM,1.11
same,log2 surviving fraction,Ov4Carbo; carboplatin co-treatment 5 µM,0.919
CCN1CCN(c2cc3c(cc2F)c(=O)c(C(=O)O)cn3C2CC2)CC1 [Enrofloxacin],log2 surviving fraction,OVCAR4; carboplatin co-treatment 0 µM,0.99
same,log2 surviving fraction,OVCAR4; carboplatin co-treatment 5 µM,0.589
same,log2 surviving fraction,Ov4Carbo; carboplatin co-treatment 0 µM,1.38
same,log2 surviving fraction,Ov4Carbo; carboplatin co-treatment 5 µM,0.481
OC[C@@H](O)[C@@H](O)[C@H](O)[C@H](O)CO [D-Mannitol (Osmitrol)],log2 surviving fraction,OVCAR4; carboplatin co-treatment 0 µM,-0.668
same,log2 surviving fraction,OVCAR4; carboplatin co-treatment 5 µM,0.609
same,log2 surviving fraction,Ov4Carbo; carboplatin co-treatment 0 µM,-0.039
same,log2 surviving fraction,Ov4Carbo; carboplatin co-treatment 5 µM,0.103
CCN(CC)CCOCCOC(=O)C(CC)(CC)c1ccccc1 [Oxeladin Citrate],log2 surviving fraction,OVCAR4; carboplatin co-treatment 0 µM,-0.321
same,log2 surviving fraction,OVCAR4; carboplatin co-treatment 5 µM,-1.04
same,log2 surviving fraction,Ov4Carbo; carboplatin co-treatment 0 µM,-0.504
same,log2 surviving fraction,Ov4Carbo; carboplatin co-treatment 5 µM,-2.9
CC(=O)[C@H]1CC[C@H]2[C@@H]3CCC4=CC(=O)CC[C@]4(C)[C@H]3CC[C@]12C [Progesterone (Prometrium)],log2 surviving fraction,OVCAR4; carboplatin co-treatment 0 µM,-2.32
same,log2 surviving fraction,OVCAR4; carboplatin co-treatment 5 µM,-0.299
same,log2 surviving fraction,Ov4Carbo; carboplatin co-treatment 0 µM,-0.457
same,log2 surviving fraction,Ov4Carbo; carboplatin co-treatment 5 µM,-0.509
O=P(O)(O)C(Cl)(Cl)P(=O)(O)O [Clodronate Disodium],log2 surviving fraction,OVCAR4; carboplatin co-treatment 0 µM,-0.0646
same,log2 surviving fraction,OVCAR4; carboplatin co-treatment 5 µM,0.989
same,log2 surviving fraction,Ov4Carbo; carboplatin co-treatment 0 µM,1.05
same,log2 surviving fraction,Ov4Carbo; carboplatin co-treatment 5 µM,1.1
Nc1ccn([C@@H]2O[C@H](CO)[C@@H](O)[C@@H]2O)c(=O)n1 [Cytarabine],log2 surviving fraction,OVCAR4; carboplatin co-treatment 0 µM,-7.8
same,log2 surviving fraction,OVCAR4; carboplatin co-treatment 5 µM,-5.72
same,log2 surviving fraction,Ov4Carbo; carboplatin co-treatment 0 µM,-4.74
same,log2 surviving fraction,Ov4Carbo; carboplatin co-treatment 5 µM,-5.53
Nc1nc2ccc(OC(F)(F)F)cc2s1 [Riluzole (Rilutek)],log2 surviving fraction,OVCAR4; carboplatin co-treatment 0 µM,0.174
same,log2 surviving fraction,OVCAR4; carboplatin co-treatment 5 µM,-0.731
same,log2 surviving fraction,Ov4Carbo; carboplatin co-treatment 0 µM,0.184
same,log2 surviving fraction,Ov4Carbo; carboplatin co-treatment 5 µM,-0.668
CCN(CC)C(=S)SSC(=S)N(CC)CC [Disulfiram (Antabuse)],log2 surviving fraction,OVCAR4; carboplatin co-treatment 0 µM,-9.71
same,log2 surviving fraction,OVCAR4; carboplatin co-treatment 5 µM,-7.56
same,log2 surviving fraction,Ov4Carbo; carboplatin co-treatment 0 µM,-7.96
same,log2 surviving fraction,Ov4Carbo; carboplatin co-treatment 5 µM,-7.56
S=c1[nH]cnc2nc[nH]c12 [Mercaptopurine],log2 surviving fraction,OVCAR4; carboplatin co-treatment 0 µM,-0.961
same,log2 surviving fraction,OVCAR4; carboplatin co-treatment 5 µM,-0.829
same,log2 surviving fraction,Ov4Carbo; carboplatin co-treatment 0 µM,-2.76
same,log2 surviving fraction,Ov4Carbo; carboplatin co-treatment 5 µM,-3.48
CCOc1ccc2nc3cc(N)ccc3c(N)c2c1 [Ethacridine lactate monohydrate],log2 surviving fraction,OVCAR4; carboplatin co-treatment 0 µM,-8.53
same,log2 surviving fraction,OVCAR4; carboplatin co-treatment 5 µM,-6.99
same,log2 surviving fraction,Ov4Carbo; carboplatin co-treatment 0 µM,-7.61
same,log2 surviving fraction,Ov4Carbo; carboplatin co-treatment 5 µM,-7.14
[O-][n+]1cccc(CO)c1 [Mepiroxol],log2 surviving fraction,OVCAR4; carboplatin co-treatment 0 µM,0.246
same,log2 surviving fraction,OVCAR4; carboplatin co-treatment 5 µM,0.0328
same,log2 surviving fraction,Ov4Carbo; carboplatin co-treatment 0 µM,-0.416
same,log2 surviving fraction,Ov4Carbo; carboplatin co-treatment 5 µM,0.252
CCC(=O)O[C@@H](O[P@](=O)(CCCCc1ccccc1)CC(=O)N1C[C@H](C2CCCCC2)C[C@H]1C(=O)O)C(C)C [Fosinopril sodium (Monopril)],log2 surviving fraction,OVCAR4; carboplatin co-treatment 0 µM,1.33
same,log2 surviving fraction,OVCAR4; carboplatin co-treatment 5 µM,0.43
same,log2 surviving fraction,Ov4Carbo; carboplatin co-treatment 0 µM,0.763
same,log2 surviving fraction,Ov4Carbo; carboplatin co-treatment 5 µM,0.195
Nc1nc(=O)c2c([nH]1)NC[C@H](CNc1ccc(C(=O)N[C@@H](CCC(=O)O)C(=O)O)cc1)N2C=O [Calcium levofolinate (Calcium Folinate)],log2 surviving fraction,OVCAR4; carboplatin co-treatment 0 µM,0.303
same,log2 surviving fraction,OVCAR4; carboplatin co-treatment 5 µM,0.196
same,log2 surviving fraction,Ov4Carbo; carboplatin co-treatment 0 µM,0.818
same,log2 surviving fraction,Ov4Carbo; carboplatin co-treatment 5 µM,0.297
C[C@@H]1C(=O)O[C@H]2C[C@@]34[C@H]5C[C@@H](C(C)(C)C)[C@]36[C@@H](OC(=O)[C@@H]6O)O[C@@]4(C(=O)O5)[C@]21O [Ginkgolide A],log2 surviving fraction,OVCAR4; carboplatin co-treatment 0 µM,-0.955
same,log2 surviving fraction,OVCAR4; carboplatin co-treatment 5 µM,0.722
same,log2 surviving fraction,Ov4Carbo; carboplatin co-treatment 0 µM,0.244
same,log2 surviving fraction,Ov4Carbo; carboplatin co-treatment 5 µM,-8.2
CCn1cc(C(=O)O)c(=O)c2cc(F)c(N3CCNCC3)cc21 [Norfloxacin (Norxacin)],log2 surviving fraction,OVCAR4; carboplatin co-treatment 0 µM,0.31
same,log2 surviving fraction,OVCAR4; carboplatin co-treatment 5 µM,0.235
same,log2 surviving fraction,Ov4Carbo; carboplatin co-treatment 0 µM,-0.38
same,log2 surviving fraction,Ov4Carbo; carboplatin co-treatment 5 µM,0.0942
O=C(O)CCc1nc(-c2ccccc2)c(-c2ccccc2)o1 [Oxaprozin],log2 surviving fraction,OVCAR4; carboplatin co-treatment 0 µM,1.24
same,log2 surviving fraction,OVCAR4; carboplatin co-treatment 5 µM,1.32
same,log2 surviving fraction,Ov4Carbo; carboplatin co-treatment 0 µM,0.951
same,log2 surviving fraction,Ov4Carbo; carboplatin co-treatment 5 µM,1.06
C[C@@H]1C/C=C/C=C/C=C/C=C/[C@H](O[C@@H]2O[C@H](C)[C@@H](O)[C@H](N)[C@@H]2O)C[C@@H]2O[C@](O)(C[C@@H](O)C[C@H]3O[C@@H]3/C=C/C(=O)O1)C[C@H](O)[C@H]2C(=O)O [Natamycin (Pimaricin)],log2 surviving fraction,OVCAR4; carboplatin co-treatment 0 µM,0.736
same,log2 surviving fraction,OVCAR4; carboplatin co-treatment 5 µM,-0.311
same,log2 surviving fraction,Ov4Carbo; carboplatin co-treatment 0 µM,-0.353
same,log2 surviving fraction,Ov4Carbo; carboplatin co-treatment 5 µM,0.277
CCn1cc(C(=O)O)c(=O)c2ccc(C)nc21 [Nalidixic acid (NegGram)],log2 surviving fraction,OVCAR4; carboplatin co-treatment 0 µM,-0.344
same,log2 surviving fraction,OVCAR4; carboplatin co-treatment 5 µM,0.493
same,log2 surviving fraction,Ov4Carbo; carboplatin co-treatment 0 µM,-0.188
same,log2 surviving fraction,Ov4Carbo; carboplatin co-treatment 5 µM,0.636
